Test results from PubChem BioAssay AID1508624 (National Center for Advancing Translational Sciences (NCATS), 2021).
About 120 (0.25%) of roughly 48,000 compounds were called active. Roughly 4% stayed inconclusive and do not appear here. Calls come from the whole dose curve; as a rule, active = well fitted activation curve with a large enough effect; inconclusive = small, poorly fitted or top-dose-only effect, or another doubt; inactive = no such curve, though single readings can be large or run the other way. The list shows a part of the results.

Assay: Primary qHTS for Identification of Small Molecule Activators of Huntingtin-Antisense Promoter Activity; note: nearly all actives have a fitted effect of over 55% in size
Conditions: HEK293 HTT-AS promoter firefly luciferase reporter, 24 h; series mostly up to 57.5 µM; activity change, positive = activation: at the top concentration
Procedure, shortened: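 Luminescence was read after Dual-Glo reagent and a 10 min room-temperature incubation. Values were normalized to vehicle (0% activity) and zero RLU (-100% activity). Reporter HEK293 cells had been exposed to compounds (up to 57.5 uM final) for 24 h.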

Activity change, positive = activation, inactive:
Cc1ccc(C(=O)N(Cc2sccc2C)C2CCS(=O)(=O)C2)cc1 (centres undefined) -17.4%
Cc1nc(C)c(-c2ccc(SCC(=O)Nc3ccc(Cl)c(Cl)c3)nn2)s1 -31.8%
COc1ccc(OC)c(-n2nnc3c(sc4nc(C)c(Br)c(C)c43)c2=O)c1 -5.44%
COc1ccccc1NC(=O)N1c2ccccc2Sc2ccccc21 -27.6%
CC1=C(C(=O)Nc2ccccc2)C(c2cccnc2)n2nc(SCc3ccccc3F)nc2N1 (centres undefined) -7.99%
O=c1c2sc3ccccc3c2n(Cc2ccccc2F)c(=O)n1Cc1ccccc1 -9.63%
CCC(CC)C(=O)Nc1cc(-c2cccc(C)c2)nn1-c1ccccc1 -3.3%
COc1ccc(Cl)cc1NC(=O)c1cc(C)nc2c1c(C)nn2-c1ccccc1 -8.08%
COc1cccc(CNC(=O)C2CCN(C(=O)N3CCOc4ccc(Cl)cc43)CC2)c1OC -25.1%
Cc1ccc(Cn2c(=O)n(Cc3ccco3)c(=O)c3sc4ccccc4c32)cc1 -16.2%
O=c1c2cnn(-c3ccc(Cl)cc3)c2ncn1Cc1ccc(Cl)cc1Cl -12%
Cc1nc2c(C(=O)NCc3ccccc3)cnn2c(C)c1Cc1ccc(F)cc1 -11%
Cc1cccc(C(=O)Nc2cc3c(cc2N2CCCCC2)n(C)c(=O)c(=O)n3C)c1 -3.64%
CC(=O)N1CCC2(CC1)OC(=O)C(C)=C2C(=O)Nc1cccc(Cl)c1C -15.2%
CCCCC(=O)Nc1cc(C)c(O)c(-c2nc3ncccc3o2)c1 -8.08%
O=C(CC1N=C2c3ccccc3N=C(SCc3ccccc3F)N2C1=O)NCCc1ccccc1 (centres undefined) 8.19%
Cc1nc2c(C(=O)NCc3ccccc3Cl)cnn2c(C)c1Cc1c(F)cccc1Cl -8.37%
CC(=O)N1CCCc2cc(S(=O)(=O)N3CCC(C(=O)NCCC(C)C)CC3)ccc21 -19.3%
O=C(NC1CC(=O)N(c2ccc(F)cc2)C1)c1cc2ccccc2o1 (centres undefined) -7.8%
CN1CCN(C(c2ccccc2)c2sc3nc(-c4ccco4)nn3c2O)CC1 (centres undefined) 9.88%
COc1ccccc1NC(=O)n1ncc2c(C)cccc21 -21.3%
CCOC(=O)c1ccc(NC(=O)C2Cc3ccccc3CN2S(=O)(=O)c2ccc(Cl)cc2)cc1 (centres undefined) -34.3%
O=C(NCC(c1cccs1)S(=O)(=O)c1cccs1)c1ccccc1 (centres undefined) -16.4%
CC(NC(=O)Cn1ncc2c3ccccc3n(Cc3ccc(F)cc3)c2c1=O)c1ccccc1 (centres undefined) -5.08%
COc1ccc(Cl)cc1NS(=O)(=O)c1cc(-c2cc(C)no2)ccc1C -38.8%
Cc1cc(Br)ccc1NC(=O)CCS(=O)(=O)c1cccc2nonc12 -24.3%
CC(=O)c1sc2c(c1C)c(=O)n(-c1ccc(Cl)cc1)c(=O)n2Cc1ccc(Cl)cc1 -15.1%
Cc1cc(C)c(Cn2c(C)c(CNCCCc3ccccc3)c(C(=O)O)c2C)c(C)c1 -11.4%
CCOC(=O)c1c(NC(=O)c2noc3c2CC(C(C)(C)C)CC3)sc2c1CCCC2 (centres undefined) -4.13%
Cc1ccc(C)c(N2CCN(C(=O)CN3C(=O)COc4ccc(S(=O)(=O)N5CCCCCC5)cc43)CC2)c1 -48.7%
COc1ccc(-c2cc(C(=O)Nc3c(C(=O)c4ccc(Cl)cc4)oc4ccccc34)no2)cc1 -7.44%
CCOC(=O)c1cc2c(=O)n3ccccc3nc2n(CC2CCCO2)c1=NC(=O)c1cccc(C(F)(F)F)c1 (centres undefined) 8.24%
CC(=O)N1CCC(N(Cc2ccco2)C(=O)Nc2cccc(C)c2)CC1 -4.47%
Cc1cccc(NC(=O)c2cnn(-c3ccccc3)c2-n2cccc2)c1C -34.9%
CNC(=O)c1ccccc1Nc1nc(Nc2ccc(N3CCOCC3)cc2OC)ncc1Cl -34.1%
CCOC(=O)N1CCN(S(=O)(=O)N2CCCC(C(=O)NCc3cccc(OC)c3)C2)CC1 (centres undefined) -15.3%
CC1=C(C(=O)Nc2cc3cn[nH]c3cc2F)C(c2ccc(C(F)(F)F)cc2)CC(=O)N1 (centres undefined) -13.3%
CCC1CN(C(=O)N2CCC(C(=O)NCc3ccc(C)o3)CC2)c2cc(C)ccc2O1 (centres undefined) -21.9%
CCS(=O)(=O)c1ncc(N(Cc2ccco2)Cc2sccc2C)c(C(=O)Nc2cc(C)ccc2C)n1 -13.6%
Cn1c(C(=O)NCc2ccc(F)cc2)cc2c(=O)n(C)c3ccccc3c21 -4.91%
CCCn1c(=O)c2sccc2n2c(CCCC(=O)N3CCN(c4ccccc4)CC3)nnc12 -0.984%
COc1ccc(CCNC(=O)Cn2nnc(-c3ccc(C(F)(F)F)cc3)n2)cc1OC -22.6%
COc1ccc(C(=O)NCCc2sc(-c3cccc(F)c3)nc2C)cc1 -16.1%
Cc1ccccc1NS(=O)(=O)c1ccc2[nH]cc(C(=O)N3CCCC3)c(=O)c2c1 -17.9%
Cc1nc2ccn(Cc3cccnc3)c(=O)c2cc1C(=O)Nc1ccc(OC(F)(F)F)cc1 -16.2%
C[C@@H](N)C1CCC(C(=O)Nc2ccncc2)CC1 (some centres undefined) -4.63%
O=NN(CCCl)C(=O)NCCCl
CC1CCc2nc(NC(=O)COc3ccc(C(C)(C)C)cc3)sc2C1 (centres undefined) 11.4%
CCOC(=O)c1ncn2c1CN(C)C(=O)c1cc(F)ccc1-2
Cc1cccc(CCn2c(=O)c3ccccc3n(Cc3cccc(F)c3)c2=O)c1 5.8%
COc1ccc(OC)c(C2CC(=O)c3c([nH]c(C(=O)OCC4CCCCC4)c3C)C2)c1 (centres undefined) -26.5%
CC(=O)c1cccc(NC(=O)CCS(=O)(=O)c2cc(Br)cc3c2N(C(=O)C2CC2)CC3)c1 -7.02%
CCCC(=O)N1CC(=O)Nc2ccc(Cl)cc2C1c1ccc(F)cc1 (centres undefined) -6.53%
Cc1csc2nc(COC(=O)COc3ccccc3F)cc(=O)n12 -6.71%
O=C(Cc1ccc(NC(=O)N2CCSc3ncccc32)cc1)NCc1ccccc1Cl -20.1%
CCOc1ccc(S(=O)(=O)Nc2ccc3oc(C)c(C(=O)OCCOC)c3c2)cc1 -39.3%
CCC(=O)Nc1nnc(S(=O)(=O)N(C)Cc2ccccc2)s1 -4.47%
COc1cccc(NC(=O)Cn2c(=O)n(-c3ccc(CC(=O)NCC4CCCO4)cc3)c(=O)c3ccccc32)c1 (centres undefined) -6.65%
CCOc1ccccc1NC(=O)c1cccc2c1C(=O)N(C1CCCCC1)C2 -3.68%
Cc1cc(C)cc(NC(=O)NCCn2nnc3cc(S(=O)(=O)N(C)C)ccc32)c1 -14.2%
CCOc1ccc(C(=O)OCc2cc(=O)n3nc(C4CCCCC4)sc3n2)cc1 -7.08%
CSc1ncc(Cl)c(C(=O)N(Cc2ccccc2Cl)C2CCS(=O)(=O)C2)n1 (centres undefined) -22.1%
COc1cccc(C(=O)NC(=O)Nc2ccc(-c3cc(C(F)(F)F)nn3-c3ccccc3)cc2)c1 -29.1%
Cc1sc2ncn(CC(=O)Nc3cccc(C(F)(F)F)c3)c(=O)c2c1S(=O)(=O)N1CCC(C)CC1 5.74%
CCOC(=O)C1=C(CN2CCN(c3ccccc3)CC2)NC(=O)NC1c1ccc(C)cc1 (centres undefined) -32.6%
COc1ccc(C2c3c(-c4ccccc4O)n[nH]c3C(=O)N2Cc2ccco2)cc1 (centres undefined) -25.2%
O=C(Nc1ccccc1C(=O)OCc1cc(=O)n2nc(C3CC3)sc2n1)c1cccc(Cl)c1 0%
Cc1ccc(Cl)cc1NC(=O)Cn1c(=O)c(CNc2ccccc2)cc2cc3c(cc21)OCCO3 -14.6%
CCCCn1c(-c2ccc(S(=O)(=O)N3CCOCC3)cc2)csc1=Nc1ccccc1 -45.8%
COc1ccc(C(=O)Nc2cc(C(F)(F)F)ccc2N2CCN(c3ccccc3)CC2)cc1OC -4.12%
Cc1cccc(Cn2c(CN3CCC(C(=O)NCCc4ccccc4)CC3)cc3ccccc32)c1 -26.6%
COc1ccc(-c2c(C)nn3c4c(cnc23)C(=O)CC(c2ccc(C)cc2)C4)cc1 (centres undefined) -13.5%
COc1ccc(-c2nn(C)c3sc(C(=O)N4CCN(c5cccc(C)c5C)CC4)cc23)cc1OC 18.2%
Cc1cc(Br)ccc1NC(=O)c1cc2c(s1)-c1ccccc1SC2 -25.3%
O=C(CCCn1c(=O)c2cccn2c2cccnc21)NCCc1ccc(Cl)cc1 -15.7%
CCOC(=O)c1ccccc1NC(=O)CN(c1ccccc1OC)S(=O)(=O)c1ccc(C)cc1 -7.56%
COc1ccc(CN2C(=O)C(NC(=O)c3ccc(C)cc3)(C(F)(F)F)N=C2c2ccccc2)cc1 (centres undefined) -25.4%
COc1ccccc1NC(=O)CSc1nc2c(oc3ccccc32)c(=O)n1-c1ccc(C)cc1 -12.5%
CCOC(=O)N1CCc2c(sc3c2c(=O)n(-c2ccc(Cl)cc2)c(=O)n3CC(=O)c2ccc(F)cc2)C1 -14.6%
COc1ccc(NS(=O)(=O)c2nnc(NC(=O)c3ccccc3F)s2)cc1 5.19%
COc1ccc(-n2ccnc(NCCc3ccc(S(N)(=O)=O)cc3)c2=O)cc1 -22.4%
COc1cc(/C=C/c2nc(C#N)c(NC3CCCCC3)o2)cc(OC)c1OC -27.4%
O=C(/C=C/c1cn(CC(O)CN2CCCCCC2)c2ccccc12)c1ccccc1 (centres undefined) -14.7%
Cc1ccc(CNc2nc3c(S(=O)(=O)c4ccccc4)nnn3c3ccsc23)cc1 -3.93%
Cc1ccc(C)c(NC(=O)CSc2cn(CC(=O)N3CCCC3)c3ccccc23)c1 -25.6%
CCCN1C(=O)C(NC(=O)c2ccccc2OC)(C(F)(F)F)C(C(=O)OC)=C1C (centres undefined) 7.24% [at 11.5 µM, percent change from vehicle, -100% = no light]
CCOc1ccc(NC(=O)Cc2csc(COc3cccc(C)c3)n2)cc1 -0.799%
CCOc1ccccc1C1C(C(=O)Nc2ccccc2OC)=C(C)Nc2nc3ccccc3n21 (centres undefined) -20.3%
Cc1ccc2nc(NC(=O)c3cc(=O)c4cc(C)c(C)cc4o3)sc2c1 0.442%
CSc1ccc(CNC(=O)CCn2ccc3cc(S(=O)(=O)N4CCCC4)ccc32)cc1 -27.3%
CCOc1ccc(NC(=O)Cn2c(C)ccc(C#N)c2=O)cc1 -10.8%
CCc1nnc2c3ccccc3nc(N3CCN(c4ccc(C)cc4C)CC3)n12 -12.6%
O=C(NCCc1csc(-c2cccnc2)n1)c1cccc(C(F)(F)F)c1 -38.8%
Cc1cc(C)c(NC(=O)CN(CC(=O)O)CC(=O)O)c(C)c1Br -5.34%
